Numbering of substitutions follows the chain as printed. No constants are given. Whether binding was seen depends on the method and setting. In cells and extracts the contact can be indirect. Some binding calls cover weakened binding; strength is not graded here. Where a sequence is shown, tags or fusion partners need not be part of it. Blank lines part the entries; values can stand above or below the molecule they belong to.
What was measured:
[1] = target: T1, PTP1^S7DS8D–GFP (Arabidopsis) (UniProt O82656); assay: co-IP; forms of PTP1 transiently expressed in ptp1 seedlings were immunoprecipitated from cellular extracts by an anti-GFP antibody; the precipitate examined by MPK6 and GFP immunoblotting; equal endogenous MPK6 input
T1 sequence: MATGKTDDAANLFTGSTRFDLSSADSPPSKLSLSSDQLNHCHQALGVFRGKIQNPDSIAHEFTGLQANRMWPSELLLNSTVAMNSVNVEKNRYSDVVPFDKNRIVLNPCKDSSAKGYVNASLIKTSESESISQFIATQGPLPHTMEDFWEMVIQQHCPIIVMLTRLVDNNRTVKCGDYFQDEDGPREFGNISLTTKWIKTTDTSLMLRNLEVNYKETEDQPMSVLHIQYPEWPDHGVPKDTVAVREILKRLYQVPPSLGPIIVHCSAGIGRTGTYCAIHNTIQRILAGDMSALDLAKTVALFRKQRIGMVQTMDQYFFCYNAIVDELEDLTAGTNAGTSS

Amino acid sequences for entries named in this document (tags omitted).
UniProt Q39026: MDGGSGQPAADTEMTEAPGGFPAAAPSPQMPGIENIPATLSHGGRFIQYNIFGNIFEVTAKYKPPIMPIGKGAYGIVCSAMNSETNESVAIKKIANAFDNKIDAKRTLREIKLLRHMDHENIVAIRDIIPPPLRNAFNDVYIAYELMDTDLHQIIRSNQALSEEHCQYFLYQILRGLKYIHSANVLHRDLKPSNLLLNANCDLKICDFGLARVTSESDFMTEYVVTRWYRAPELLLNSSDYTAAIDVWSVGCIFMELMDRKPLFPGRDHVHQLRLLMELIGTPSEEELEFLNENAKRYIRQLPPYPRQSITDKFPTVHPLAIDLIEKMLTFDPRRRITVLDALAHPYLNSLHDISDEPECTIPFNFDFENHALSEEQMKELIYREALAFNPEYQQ

[2] = target: T2, PTP1^S7AS8A–GFP (Arabidopsis) (UniProt O82656); assay: as above
T2 sequence: T1 sequence with D7A, D8A

[3] = target: T3, PTP1–GFP (PROTEIN TYROSINE PHOSPHATASE 1, wild type) (Arabidopsis) (UniProt O82656); assay: as above
T3 sequence: T1 sequence with D7S, D8S

[4] = target: T4, PTP1-cYFP (Arabidopsis) (UniProt O82656); assay: split reporter; BiFC: nYFP and cYFP fusions co-transfected into Arabidopsis leaf protoplasts; confocal microscopy (Zeiss LSM510 META)
T4 sequence: T1 sequence with D7S, D8S

[5] = target: MPK6-cYFP (Arabidopsis) (UniProt Q39026); assay: as above

- binding [1]: no binding
- binding [2]: binds
- binding [3]: binds
Molecule: MPK6 (endogenous) (from UniProt Q39026 1-395)

- binding [4]: binds
Molecule: MPK6-nYFP (from UniProt Q39026 1-395)

- binding [4]: binds
- binding [5]: binds
B1: SnRK1.1-nYFP (SNF1 RELATED PROTEIN KINASE 1.1) (protein, UniProt Q38997-2 1-512)
chain: MDGSGTGSRSGVESILPNYKLGRTLGIGSFGRVKIAEHALTGHKVAIKILNRRKIKNMEMEEKVRREIKILRLFMHPHIIRLYEVIETPTDIYLVMEYVNSGELFDYIVEKGRLQEDEARNFFQQIISGVEYCHRNMVVHRDLKPENLLLDSKCNVKIADFGLSNIMRDGHFLKTSCGSPNYAAPEVISGKLYAGPEVDVWSCGVILYALLCGTLPFDDENIPNLFKKIKGGIYTLPSHLSPGARDLIPRMLVVDPMKRVTIPEIRQHPWFQAHLPRYLAVPPPDTVQQAKKIDEEILQEVINMGFDRNHLIESLRNRTQNDGTVTYYLILDNRFRASSGYLGAEFQETMEGTPRMHPAESVASPVSHRLPGLMEYQGVGLRSQYPVERKWALGLQSRAHPREIMTEVLKALQDLNVCWKKIGHYNMKCRWVPNSSADGMLSNSMHDNNYFGDESSIIENEAAVKSPNVVKFEIQLYKTRDDKYLLDLQRVQGPQFLFLDLCAAFLAQLRVL

From paper PMC4861021
